The record followed here is PMC4336329 (PLoS ONE, 2015).

Out of some 310,000 compounds screened, about 14,000 (4.5%) showed an effect of 50% or more. The effect is printed as a negative number. Some of the results follow.
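Also: peak tail current of the secondary pulse compared with the same well before compound.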

For the assay, the target named is human ether-à-go-go-related gene (hERG) potassium channel (human, UniProt Q12809). The experiment in a line: primary screen, population patch clamp on CHO cells stably expressing hERG.
human ether-à-go-go-related gene (hERG) potassium channel, sequence (Q12809 whole entry, looked up): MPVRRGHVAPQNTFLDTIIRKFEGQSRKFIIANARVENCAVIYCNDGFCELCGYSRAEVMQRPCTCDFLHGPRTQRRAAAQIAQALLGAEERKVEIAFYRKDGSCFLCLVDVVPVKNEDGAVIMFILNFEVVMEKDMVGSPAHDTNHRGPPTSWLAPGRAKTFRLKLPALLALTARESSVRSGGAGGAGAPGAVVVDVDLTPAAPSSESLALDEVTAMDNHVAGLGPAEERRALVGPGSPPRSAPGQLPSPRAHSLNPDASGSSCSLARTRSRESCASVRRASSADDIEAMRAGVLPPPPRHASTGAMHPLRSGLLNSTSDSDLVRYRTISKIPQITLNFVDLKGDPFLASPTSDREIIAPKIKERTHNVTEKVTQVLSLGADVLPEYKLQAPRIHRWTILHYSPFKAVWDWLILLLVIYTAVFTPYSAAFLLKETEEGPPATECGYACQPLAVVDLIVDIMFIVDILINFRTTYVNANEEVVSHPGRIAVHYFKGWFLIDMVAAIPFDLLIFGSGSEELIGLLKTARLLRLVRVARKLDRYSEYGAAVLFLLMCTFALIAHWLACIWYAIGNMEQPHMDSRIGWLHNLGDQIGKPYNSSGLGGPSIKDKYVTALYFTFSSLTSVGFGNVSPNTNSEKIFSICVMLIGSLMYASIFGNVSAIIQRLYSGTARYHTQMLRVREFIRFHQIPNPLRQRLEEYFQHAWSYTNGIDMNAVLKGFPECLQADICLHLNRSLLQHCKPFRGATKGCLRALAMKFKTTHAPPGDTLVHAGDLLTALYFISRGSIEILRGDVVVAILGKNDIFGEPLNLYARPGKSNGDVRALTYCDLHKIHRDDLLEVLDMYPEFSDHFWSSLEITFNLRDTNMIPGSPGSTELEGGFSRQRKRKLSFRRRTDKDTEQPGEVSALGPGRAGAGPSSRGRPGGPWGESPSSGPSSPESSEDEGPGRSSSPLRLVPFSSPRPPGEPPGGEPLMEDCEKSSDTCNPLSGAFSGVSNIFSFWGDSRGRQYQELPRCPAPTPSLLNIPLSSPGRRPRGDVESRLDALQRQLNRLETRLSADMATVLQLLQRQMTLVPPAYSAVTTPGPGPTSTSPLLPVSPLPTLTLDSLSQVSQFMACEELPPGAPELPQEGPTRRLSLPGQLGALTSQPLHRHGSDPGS
On to `COc1ccc(C)cc1N(CC(=O)Nc1ccc(S(=O)(=O)N2CCCC2)cc1)S(C)(=O)=O`, for which the “hERG current change (%, negative = inhibition) at 10uM” value is listed as -15.9%.

As to `Cn1c(Cl)c(C(=O)Nc2ccc(Cl)cc2)c2ccccc21`, the “hERG current change (%, negative = inhibition) at 10uM” value is 18.5%.

Take `O=C(Nc1ccc(N2CCOCC2)c([N+](=O)[O-])c1)c1ccco1`: the “hERG current change (%, negative = inhibition) at 10uM” value is recorded as -6.41%.

`COc1ccc(C(=O)Nc2nnc(CCc3ccccc3)s2)c(OC)c1`: the “hERG current change (%, negative = inhibition) at 10uM” value came out at 18%.

Take `CC(C)C(=O)N1CCN(c2c(Cl)cccc2[N+](=O)[O-])CC1`: the “hERG current change (%, negative = inhibition) at 10uM” value was -16.5%.

On to `CC(Nc1ncnc2ccccc12)c1ccccc1` (stereo not drawn), for which the “hERG current change (%, negative = inhibition) at 10uM” value is 5.95%.

`CCOC(=O)N1CCC(NC(=O)c2ccc3c(Cl)c4c(nc3c2)CCCC4)CC1`: the “hERG current change (%, negative = inhibition) at 10uM” value is recorded as -36.6%.

Consider `CC(C)COC(=O)NCC12C=CC(O1)C1C(=O)N(c3ccc(Cl)cc3)C(=O)C12` (stereo not drawn), for which the “hERG current change (%, negative = inhibition) at 10uM” value is listed as 4.85%.

On to `CN(C1CCCCC1)S(=O)(=O)c1ccc(S(=O)(=O)N2CCN(CCC#N)CC2)cc1`, for which the “hERG current change (%, negative = inhibition) at 10uM” value was found to be 2.73%.

For the molecule `O=C(CN1C(=O)NC2(CCCC2)C1=O)Nc1cccc(C(F)(F)F)c1`, the “hERG current change (%, negative = inhibition) at 10uM” value is on record as 17%.

On to `COc1cc(C2/C(=C(\O)c3ccc4c(c3)OCCO4)C(=O)C(=O)N2c2nnc(C)s2)cc(OC)c1OC` (stereo not drawn), for which the “hERG current change (%, negative = inhibition) at 10uM” value is listed as 18.3%.

On to `CS(=O)(=O)N1CCN(c2ccc(C(=O)NC34CC5CC(CC(C5)C3)C4)cc2[N+](=O)[O-])CC1`, for which the “hERG current change (%, negative = inhibition) at 10uM” value turned out to be 9.45%.

As for `CCOC(=O)C1=C(C)NC(=S)NC1C` (stereo not drawn), the “hERG current change (%, negative = inhibition) at 10uM” value amounted to 14.3%.

For the molecule `Cc1ccc(S(=O)(=O)N(C)c2ccc(OCC(=O)O)cc2)cc1`, the “hERG current change (%, negative = inhibition) at 10uM” value stood at 6.45%.

For the molecule `Cc1ccc(C(=O)/C=C/NCc2ccc(F)cc2)cc1`, the “hERG current change (%, negative = inhibition) at 10uM” value is given as -9.71%.

In the case of `Cc1ccccc1Oc1ncccc1C(=O)/C(C#N)=C/N(C)C`, the “hERG current change (%, negative = inhibition) at 10uM” value amounted to 6.43%.

As to `CCOc1ccccc1NC(=O)C1CCCN(S(=O)(=O)c2ccc(OC)c(C)c2)C1` (stereo not drawn), the “hERG current change (%, negative = inhibition) at 10uM” value is listed as -5.35%.

As to `Cc1ccc(C(=O)Nc2cc(C(F)(F)F)ccc2N2CCCCC2)cc1[N+](=O)[O-]`, the “hERG current change (%, negative = inhibition) at 10uM” value was determined as 13.6%.

Take `O=C1CCC(=O)N1c1nc2nc(-c3ccccc3)cc(=O)n2[nH]1`: the “hERG current change (%, negative = inhibition) at 10uM” value is 29.3%.

Regarding `Cc1cc(N2C(=O)C3C4C=CC(C4)C3C2=O)ccc1Br` (stereo not drawn), the “hERG current change (%, negative = inhibition) at 10uM” value was determined as 3.78%.

Consider `CCNC(=O)CSc1nc2cc(S(=O)(=O)Nc3ccc(OC)cc3)ccc2o1`, for which the “hERG current change (%, negative = inhibition) at 10uM” value came to 2.62%.

`C=CCN1C(=O)C(CC(=O)Nc2ccc(OC)cc2)N(Cc2ccco2)C1=S` (stereo not drawn): the “hERG current change (%, negative = inhibition) at 10uM” value was -22.5%.

As for `CC1CCCN(C(=O)COc2ccc(Nc3ccccc3)cc2)C1` (stereo not drawn), the “hERG current change (%, negative = inhibition) at 10uM” value is reported as -12.6%.

As to `O=c1c2[nH]c3ccccc3c2ncn1CCN1CCOCC1`, the “hERG current change (%, negative = inhibition) at 10uM” value is given as 4.87%.

As for `Cc1cccc(C)c1NC(=O)CSc1nnc(C)n1CC1CCCO1` (stereo not drawn), the “hERG current change (%, negative = inhibition) at 10uM” value is given as 14.7%.

For `Cc1nc(SCC(=O)Nc2nnc(C(C)C)s2)n[nH]1`, the “hERG current change (%, negative = inhibition) at 10uM” value is 19.2%.

In the case of `COc1ccc2nc(NC(=O)CCn3cccc3)sc2c1`, the “hERG current change (%, negative = inhibition) at 10uM” value was 0.405%.

Take `COC(=O)c1ccc(/C=N/n2cnnc2)cc1`: the “hERG current change (%, negative = inhibition) at 10uM” value was 10.1%.

In the case of `CCOc1ccc(N2C(=O)C(c3ccccc3)=C(c3nc4ccccc4s3)C2NC(C)=O)cc1` (stereo not drawn), the “hERG current change (%, negative = inhibition) at 10uM” value is reported as 6.42%.

Regarding `COc1ccc(-n2nnnc2SCC(=O)c2ccc(O)c(O)c2)cc1`, the “hERG current change (%, negative = inhibition) at 10uM” value is given as -16.6%.

For `COC(=O)c1cc(C(=O)Nc2ccc(C)cn2)cc([N+](=O)[O-])c1`, the “hERG current change (%, negative = inhibition) at 10uM” value was -13.7%.

As for `NS(=O)(=O)c1ccc(-c2ccc(/C=N/NC(=O)c3ccc([N+](=O)[O-])cc3)o2)cc1`, the “hERG current change (%, negative = inhibition) at 10uM” value was determined as 11.7%.

For the molecule `O=C(Cc1ccccc1)Nc1nc2ccccc2[nH]1`, the “hERG current change (%, negative = inhibition) at 10uM” value is given as 3.62%.

As for `COCCn1c(Cc2ccccc2)nnc1SCC(=O)NC(C)(C)C`, the “hERG current change (%, negative = inhibition) at 10uM” value worked out at 14.2%.

As to `CC(=O)c1ccc(NC(=O)c2cnsn2)cc1`, the “hERG current change (%, negative = inhibition) at 10uM” value stood at 11.4%.

Turning to `COCc1cc(Sc2c(Cl)cccc2Cl)nc(-c2ccccc2)n1`, the “hERG current change (%, negative = inhibition) at 10uM” value was 24.8%.

Consider `Cc1cc(NC(=O)CCC(=O)N(CC(=O)NCC2CCCO2)Cc2ccc(F)cc2)no1` (stereo not drawn), for which the “hERG current change (%, negative = inhibition) at 10uM” value amounted to 6.72%.

As to `Cc1ccc(SCCNC(=O)c2ccccc2F)cc1`, the “hERG current change (%, negative = inhibition) at 10uM” value was 1.09%.

For `O=[N+]([O-])c1cccc2c(N3CCCC3)ccnc12`, the “hERG current change (%, negative = inhibition) at 10uM” value was -77.7%.

With `O=S(=O)(N/N=C\c1cccnc1)c1ccccc1`, the “hERG current change (%, negative = inhibition) at 10uM” value is on record as 18.3%.

With `CN(C)CCOC(C)(c1ccccc1)c1ccccn1.O=C(O)CCC(=O)O` (stereo not drawn), the “hERG current change (%, negative = inhibition) at 10uM” value stood at 5.4%.

As for `Cc1cc(N2CCN(C)CC2)nc2ccc(NC(=S)N3CCC4(CC3)OCCO4)cc12`, the “hERG current change (%, negative = inhibition) at 10uM” value is reported as -34%.

Regarding `CCOC(=O)CSc1n[nH]c(NC(=O)c2cccc(C)c2)n1`, the “hERG current change (%, negative = inhibition) at 10uM” value is recorded as -15.3%.

`CCOC(=O)c1ccc(-n2c(C)nc3c(cnn3-c3ccccc3Cl)c2=O)cc1`: the “hERG current change (%, negative = inhibition) at 10uM” value was -8.21%.

As to `COc1cc(NS(=O)(=O)c2ccc(NC(=S)NC(=O)/C=C/c3ccc(F)cc3)cc2)ncn1`, the “hERG current change (%, negative = inhibition) at 10uM” value is on record as 10.5%.

With `CC(=O)N1CCN=C1SCc1ccccc1F`, the “hERG current change (%, negative = inhibition) at 10uM” value is reported as 12.6%.

`CCOC(=O)CC(=O)CSc1nc2c(sc(=S)n2-c2ccccc2)c(=O)[nH]1`: the “hERG current change (%, negative = inhibition) at 10uM” value is -3.97%.

With `COc1ccc(C/C(C)=N/NC(=O)c2ccc(C)cc2C)cc1`, the “hERG current change (%, negative = inhibition) at 10uM” value is -0.647%.

As for `O=C(Nc1ccccc1N1CCOCC1)c1ccccc1[N+](=O)[O-]`, the “hERG current change (%, negative = inhibition) at 10uM” value is -7.67%.

Regarding `O=C(NCCCNC(=O)c1ccc(-c2cccc(Cl)c2)o1)c1cnccn1`, the “hERG current change (%, negative = inhibition) at 10uM” value is given as -31.8%.

For `O=C1OC(=O)c2cc([N+](=O)[O-])ccc21`, the “hERG current change (%, negative = inhibition) at 10uM” value was 22.1%.

With `COc1ccc(CCNC(=O)c2c(C)nn(CC(C)C)c2Cl)cc1OC`, the “hERG current change (%, negative = inhibition) at 10uM” value is on record as -9.71%.

With `Cc1c(Cl)cccc1NC(=O)CCC(=O)NNC(=O)c1ccco1`, the “hERG current change (%, negative = inhibition) at 10uM” value stood at 18.3%.

In the case of `CC(C)(C)c1cc(NC(=O)c2ccco2)n(-c2ccccc2)n1`, the “hERG current change (%, negative = inhibition) at 10uM” value is 4.64%.

For `COc1ccc(CCNS(=O)(=O)CCNC(=O)c2ccc(OC)cc2)cc1`, the “hERG current change (%, negative = inhibition) at 10uM” value was -18.6%.

On to `C=CCc1cccc(CNc2nc3ccccc3n2CCC)c1O`, for which the “hERG current change (%, negative = inhibition) at 10uM” value is on record as 5.13%.

With `Cc1nn(-c2ccccc2)c(C)c1NC(=O)COC(=O)c1ccc(NC(=O)CC#N)cc1`, the “hERG current change (%, negative = inhibition) at 10uM” value was 18.4%.
